Reference: the supplement of paper PMC9446081
In all, about 39,000 compounds went through this assay and about 220 (0.56%) showed activity. The list shows a part of the results.

These compounds were tested on Escherichia coli K-12 BW25113 (assay: relative growth (OD600 normalised to plate interquartile mean) (fraction); higher = less growth inhibition, active = 0.2 or less). Details: 50 µM; LB; incubation time: overnight (16-24 h).
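Also: static incubation at 37 °C against the wild-type strain, values averaged over two biological replicates.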

| SMILES | relative growth |
| --- | --- |
| C[C@H](CO)N1C[C@H](C)[C@@H](CN(C)S(=O)(=O)c2ccc(F)cc2)Oc2ccc(NC(=O)Nc3cccc4ccccc34)cc2C1=O | inactive: 0.979 |
| Cc1noc(C)c1NC(=O)N(C)C[C@H]1Oc2c(NC(=O)C3CCOCC3)cccc2C(=O)N([C@H](C)CO)C[C@@H]1C | inactive: 1.03 |
| O=C(Oc1ccc(C2CCCCC2)cc1)c1cccs1 | inactive: 0.934 |
| C[C@H]1CCCCO[C@@H](CN(C)C(=O)Nc2ccccc2)[C@@H](C)CN([C@@H](C)CO)C(=O)c2cc(NC(=O)CCC(F)(F)F)ccc2O1 | inactive: 0.998 |
| C[C@@H]1CN([C@H](C)CO)S(=O)(=O)c2ccc(C#Cc3cccnc3)cc2O[C@@H]1CN(C)CC1CCOCC1 | inactive: 0.997 |
| CS(=O)(=O)[C@H]1CCNC1 | inactive: 0.995 |
| COc1ccc(/C=C2/NC(=O)NC2=O)cc1 | inactive: 0.974 |
| C[C@H]1CN([C@@H](C)CO)C(=O)c2cccc(NS(=O)(=O)c3ccc(F)cc3)c2O[C@@H]1CN(C)S(=O)(=O)c1ccc(F)cc1 | inactive: 0.992 |
| C[C@@H]1CN([C@@H](C)CO)C(=O)c2cc(NC(=O)c3ccncc3)ccc2O[C@@H]1CN(C)Cc1ccc2c(c1)OCO2 | inactive: 0.979 |
| CC(C)[C@@H](CC[C@@H](C)[C@H]1CC[C@H]2[C@@H]3[C@H](O)C[C@H]4C[C@@H](NCCCNCCCCN)CC[C@]4(C)[C@H]3CC[C@]12C)OS(=O)(=O)O | active: 0.137 |
| COc1cccc(S(=O)(=O)N2C[C@H](O)COC[C@@H]3O[C@@H](CC(=O)N4CCN(c5ccccc5)CC4)CC[C@H]32)c1 | inactive: 1.03 |
| COc1ccc2c3c(n(c2c1)C)[C@H](CO)N(Cc1cc(cc(c1)OC)OC)C[C@]13CCN(CC1)C(=O)Nc1cccc(c1)F | inactive: 1.02 |
| COc1ccc(S(=O)(=O)Nc2ccc3c(c2)C(=O)N([C@H](C)CO)C[C@H](C)[C@@H](CN(C)Cc2ccc4c(c2)OCO4)OCCCC[C@H](C)O3)cc1 | inactive: 1 |
| NCC1OC(OC2C(CO)OC(OC3C(O)C(N)CC(N)C3OC3OC(CN)C(O)C(O)C3N)C2O)C(N)C(O)C1O.O=S(=O)(O)O.O=S(=O)(O)O.O=S(=O)(O)O (stereo not drawn) | inactive: 1.2 |
| C[C@H]1CN([C@@H](C)CO)S(=O)(=O)c2ccc(C#CC(C)(C)O)cc2O[C@H]1CN(C)Cc1ccc(F)cc1 | inactive: 0.909 |
| O=C(O[C@@H]1O[C@@H]2COC(=O)c3cc(O)c(O)c(O)c3-c3c(cc(O)c(O)c3O)C(=O)O[C@H]2[C@H](OC(=O)c2cc(O)c(O)c(O)c2)[C@H]1OC(=O)c1cc(O)c(O)c(O)c1)c1cc(O)c(O)c(O)c1 | inactive: 0.514 |
| C[C@H](CO)N1C[C@H](C)[C@@H](CN(C)C(=O)Cc2cccnc2)Oc2ncc(C#CC3(O)CCCC3)cc2C1=O | inactive: 1.01 |
| CC(C)c1c(C(=O)c2ccccc2)c(-c2ccccc2)c(-c2ccc(F)cc2)n1CC[C@@H](O)C[C@@H](O)CC(=O)O | inactive: 1.01 |
| O=C(NNC(=O)C1CCNCC1)c1cccnc1 | inactive: 0.883 |

| SMILES | relative growth |
| --- | --- |
| C[C@H](O)C#Cc1ccc2c(c1)O[C@H](CN(C)C(=O)Nc1ccccc1)[C@H](C)CN([C@H](C)CO)S2(=O)=O | inactive: 0.894 |
| Clc1ccc(C(Cn2ccnc2)OCc2ccsc2Cl)c(Cl)c1 (stereo not drawn) | inactive: 0.917 |
| CO[C@@H]1CN(C)C(=O)c2cc(NC(=O)NC3CCCCC3)ccc2OC[C@@H](C)N(CCc2ccccc2)C[C@H]1C | inactive: 1 |
| C[C@H](CO)N1C[C@H](C)[C@H](CN(C)Cc2ccc3c(c2)OCCN3C)OCc2cnnn2CCCC1=O | inactive: 1 |
| C[C@@H]1CN([C@H](C)CO)C(=O)c2cc(NC(=O)Nc3ccc(F)cc3)ccc2O[C@@H](C)CCCCO[C@@H]1CN(C)C(=O)Cc1ccccc1 | inactive: 1.03 |
| Nc1nc(=O)c2nc(Br)n([C@H]3O[C@H]4COP(=O)(O)O[C@@H]4[C@@H]3O)c2[nH]1 | inactive: 0.963 |
| COc1ccc(S(=O)(=O)Nc2ccc3c(c2)[C@@H]2C[C@@H](CC(=O)NCC4CC4)O[C@@H](CO)[C@@H]2O3)cc1 | inactive: 0.967 |
| CO[C@@H]1CN(C)C(=O)c2ccc(NS(C)(=O)=O)cc2OC[C@@H](C)N(C(=O)CN(C)C)C[C@@H]1C | inactive: 0.983 |
| Cc1noc(C)c1NC(=O)N(C)C[C@@H]1Oc2ccc(NC(=O)Cn3cnnn3)cc2C(=O)N([C@@H](C)CO)C[C@H]1C | inactive: 0.979 |
| CCN(CC)CCOC(=O)C(Cc1cccc2ccccc12)CC1CCCO1.O=C(O)C(=O)O (stereo not drawn) | inactive: 0.938 |
| Cc1noc(C)c1NC(=O)N(C)C[C@@H]1Oc2ccc(NC(=O)Nc3ccc(C(F)(F)F)cc3)cc2C(=O)N([C@H](C)CO)C[C@H]1C | inactive: 0.988 |
| C[C@H](CO)N1C[C@H](C)[C@H](CN(C)C(=O)Nc2ccc(F)cc2)Oc2c(NC(=O)CCCCCC(=O)Nc3ccccc3N)cccc2C1=O | inactive: 1 |
| C[C@H](CO)N1C[C@H](C)[C@@H](CN(C)C(=O)Nc2ccc(F)cc2)Oc2ccc(NS(=O)(=O)c3cn(C)cn3)cc2C1=O | inactive: 0.997 |
| COc1ccc(NC(=O)N(C)C[C@@H]2Oc3cc(C#CCN(C)C)ccc3S(=O)(=O)N([C@@H](C)CO)C[C@H]2C)cc1 | inactive: 0.97 |
| C[C@@H]1CN([C@@H](C)CO)C(=O)c2cc(NC(=O)CCC(F)(F)F)ccc2O[C@@H](C)CCCCO[C@@H]1CN(C)Cc1ccncc1 | inactive: 0.991 |
| COc1ccc(NC(=O)N(C)C[C@@H]2Oc3ncc(Br)cc3C(=O)N([C@@H](C)CO)C[C@@H]2C)cc1 | inactive: 1.01 |
| C[C@@H]1CN([C@@H](C)CO)C(=O)Cc2cc(NC(=O)Cn3cnnn3)ccc2O[C@@H]1CN(C)Cc1ccncc1 | inactive: 1 |
| C[C@@H]1CCCCO[C@@H](CN(C)S(=O)(=O)c2cccs2)[C@@H](C)CN([C@H](C)CO)C(=O)c2cc(NC(=O)Nc3ccc(F)cc3)ccc2O1 | inactive: 0.977 |
| Cc1noc(C)c1NC(=O)Nc1ccc2c(c1)C(=O)N([C@H](C)CO)C[C@H](C)[C@H](CN(C)Cc1ccc(Cl)c(Cl)c1)OCCCC[C@@H](C)O2 | inactive: 0.948 |
